The campaign covered roughly 310,000 compounds. About 14,000 (4.5%) showed an effect of 50% or more. The effect is printed as a negative number. The list shows a part of the results.
Biological target: human ether-à-go-go-related gene (hERG) potassium channel (human, UniProt Q12809)
Experiment: primary screen, population patch clamp on CHO cells stably expressing hERG
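Further: peak tail current of the secondary pulse compared with the same well before compound.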

Sequence of human ether-à-go-go-related gene (hERG) potassium channel (Q12809 whole entry, looked up): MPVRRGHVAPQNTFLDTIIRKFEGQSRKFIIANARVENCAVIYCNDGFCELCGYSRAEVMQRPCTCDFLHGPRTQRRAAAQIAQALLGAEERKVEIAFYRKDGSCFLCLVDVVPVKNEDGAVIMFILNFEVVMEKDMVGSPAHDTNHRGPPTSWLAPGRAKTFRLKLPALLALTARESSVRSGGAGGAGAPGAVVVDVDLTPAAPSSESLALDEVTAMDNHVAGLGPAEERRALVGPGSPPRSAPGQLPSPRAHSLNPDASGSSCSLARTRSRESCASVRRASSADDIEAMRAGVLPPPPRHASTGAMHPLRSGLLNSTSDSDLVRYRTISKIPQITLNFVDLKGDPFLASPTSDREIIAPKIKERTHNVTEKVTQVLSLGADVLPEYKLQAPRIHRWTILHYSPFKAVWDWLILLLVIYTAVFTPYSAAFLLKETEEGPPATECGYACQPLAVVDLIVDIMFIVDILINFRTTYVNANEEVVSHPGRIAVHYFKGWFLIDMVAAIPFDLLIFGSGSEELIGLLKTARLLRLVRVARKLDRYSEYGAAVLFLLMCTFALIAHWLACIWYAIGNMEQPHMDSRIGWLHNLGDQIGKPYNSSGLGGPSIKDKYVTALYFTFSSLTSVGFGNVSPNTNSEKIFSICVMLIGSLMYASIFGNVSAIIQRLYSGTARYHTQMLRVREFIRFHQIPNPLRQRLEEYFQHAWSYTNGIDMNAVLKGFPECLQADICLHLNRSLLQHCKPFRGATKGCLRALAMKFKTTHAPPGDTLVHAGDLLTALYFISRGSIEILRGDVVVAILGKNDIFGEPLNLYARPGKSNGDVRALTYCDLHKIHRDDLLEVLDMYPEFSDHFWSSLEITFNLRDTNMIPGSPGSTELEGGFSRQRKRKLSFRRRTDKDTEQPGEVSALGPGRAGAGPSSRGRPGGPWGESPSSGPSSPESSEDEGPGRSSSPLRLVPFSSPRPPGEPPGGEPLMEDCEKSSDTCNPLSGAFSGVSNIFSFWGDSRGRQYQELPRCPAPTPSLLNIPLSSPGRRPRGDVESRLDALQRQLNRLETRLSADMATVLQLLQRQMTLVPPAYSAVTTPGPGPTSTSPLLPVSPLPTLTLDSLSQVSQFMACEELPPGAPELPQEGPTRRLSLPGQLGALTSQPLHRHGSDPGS

Going from COc1ccccc1CCNC(=O)C1CCN(C(=O)/C=C/c2ccccc2)CC1 to CCOc1ccccc1NC(=O)NCCCCc1ccccc1, the “hERG current change (%, negative = inhibition) at 10uM” value rises from -13.8% to 18.3%.

Going from N#CC(C#N)=C1C=C2C=C(N3CCCCC3)CCC2CC1 (centres unmarked) to Cn1c(N2CCCCC2)cc(=O)n(C)c1=O, the “hERG current change (%, negative = inhibition) at 10uM” value rises from -5.36% to 22.2%.

Compared with CCOC(=O)N1CCN(C(=O)c2cc3c(ccc4ccccc43)oc2=O)CC1, O=C(COc1ccc(Br)cc1)N1CCN(Cc2c[nH]c3ccccc23)CC1.O=C(O)C(=O)O is lower in “hERG current change (%, negative = inhibition) at 10uM” value: -0.875% for the first, -57.9% for the second.

Compared with CCC(C)N(C(=O)COc1ccccc1C(=O)NCc1ccccc1)C1CCS(=O)(=O)C1 (centres unmarked), COCC(C)NC(=O)CSc1nc2ccccc2n1CCc1ccccc1 (centres unmarked) is higher in “hERG current change (%, negative = inhibition) at 10uM” value: -39.2% for the first, -8.53% for the second.

Compared with COc1ccc(OC)c(CN2CCN(C(=O)CCNC(=O)c3ccc(Br)cc3)CC2)c1, COc1ccc(NC(=O)Nc2ccc(C(=O)N3CCOCC3)cc2)cc1OC is higher in “hERG current change (%, negative = inhibition) at 10uM” value: -45.7% for the first, 10.9% for the second.

Going from O=C1c2ccccc2C(=O)c2c1cccc2N1CCN(Cc2ccccc2)CC1 to COc1ccc(CC(=O)N(Cc2ccccc2)c2ccccc2)cc1S(=O)(=O)N1CCOCC1, the “hERG current change (%, negative = inhibition) at 10uM” value rises from -56.9% to 1.07%.

First: O=c1c2c3nc4ccccc4nc3n(/N=C/c3ccco3)c2ncn1CCC1=CCCCC1
Second: O=c1c2ccccc2ncn1-c1ccccc1F
The “hERG current change (%, negative = inhibition) at 10uM” value of the first is lower: -8.49% for the first, 9.57% for the second.

Compared with Cc1ccc(S(=O)(=O)N(C)c2ccccc2C(=O)Nc2c(F)cccc2F)cc1, Cc1ccc(NC(=O)CN(C)CC(=O)Nc2ccccc2-c2ccccc2)cc1 is lower in “hERG current change (%, negative = inhibition) at 10uM” value: 3.31% for the first, -35.1% for the second.

Compared with O=C(NNS(=O)(=O)c1ccc(Br)cc1)c1ccncc1, O=C(N/N=C/c1ccc[nH]1)c1ccncc1 is higher in “hERG current change (%, negative = inhibition) at 10uM” value: 8.19% for the first, 20.2% for the second.

Compared with Cc1c(O)c2ccccc2n(-c2ccccc2)c1=O, Cc1nc2ccccc2c(=O)n1-c1ccc([N+](=O)[O-])cc1 is higher in “hERG current change (%, negative = inhibition) at 10uM” value: 2.63% for the first, 7.26% for the second.

First: COc1ccc(CCNC(=O)c2cc(-c3cc(C)cc(C)c3O)n[nH]2)cc1OC
Second: COc1cc2[nH]cc(C(=O)NCCc3ccccc3)c(=O)c2cc1OC
The “hERG current change (%, negative = inhibition) at 10uM” value of the first is higher: -7.88% for the first, -22.4% for the second.

Compared with C/C=C1\COC(C(=O)NCCCN2CCCC2=O)(C(F)(F)F)C=C1C=C(C)C (centres unmarked), O=C(NCCCN1CCCC1=O)c1ccc2c(c1)NC(=O)c1ccccc1S2 is higher in “hERG current change (%, negative = inhibition) at 10uM” value: -4.43% for the first, 9.95% for the second.

Compared with CC1(C)CC(=O)C2=C(C1)N(Cc1ccco1)C(=O)C2(O)C(F)(F)F (centres unmarked), CCC(=O)C1=C(N2CCCC2)CC(C)(C)CC1=O is higher in “hERG current change (%, negative = inhibition) at 10uM” value: -2.9% for the first, 8.97% for the second.

Going from CCOC(=O)C1CCCN(S(=O)(=O)c2cc3c4c(c2)CCN4C(=O)CC3)C1 (centres unmarked) to COc1ccc(S(=O)(=O)N2CCOCC2)cc1NC(=O)COC(=O)C1=COCCO1, the “hERG current change (%, negative = inhibition) at 10uM” value rises from -11.2% to 5.95%.

Compared with Cc1c(/C=N/N2C(=O)C3C4C=CC(C4)C3C2=O)c2ccccc2n1C (centres unmarked), Cc1cccc(NC(=O)Nc2c(C)n(C)n(-c3ccccc3)c2=O)c1 is lower in “hERG current change (%, negative = inhibition) at 10uM” value: 11.7% for the first, 2.93% for the second.

Going from CN1CCN(C2Cc3ccccc3Sc3cc(C(F)(F)F)ccc32)CC1.O=C(O)/C=C\C(=O)O (centres unmarked) to Cc1ccc(S(=O)(=O)N2CCN(C(=O)c3cccs3)CC2)cc1, the “hERG current change (%, negative = inhibition) at 10uM” value rises from -70.2% to 0.764%.

First: CCOC(=O)C1(Cc2cccc(F)c2)CCN(CC2CC2)CC1
Second: COc1cccc(CN2CCNC(=O)C2CC(=O)N(C)C2CCOCC2)c1 (centres unmarked)
The “hERG current change (%, negative = inhibition) at 10uM” value of the first is lower: -33.4% for the first, 12% for the second.

First: Cc1ccc(C)c(NC(=S)NC(NC(=O)Cc2cccc3ccccc23)C(Cl)(Cl)Cl)c1 (centres unmarked)
Second: CCOC(=O)NC(NC(=S)Nc1ccc(OC)cc1)C(Cl)(Cl)Cl (centres unmarked)
The “hERG current change (%, negative = inhibition) at 10uM” value of the first is lower: 1.79% for the first, 11.3% for the second.

First: Cc1ccc(OC(=S)Nc2ccccc2)c(C)c1
Second: Cc1cc2nc(C3CCCN(C(=S)Nc4ccccc4)C3)[nH]c2cc1C (centres unmarked)
The “hERG current change (%, negative = inhibition) at 10uM” value of the first is lower: 6.7% for the first, 25% for the second.

First: NC(=O)c1cccc2c1C(=O)N(C1CCCCC1)C2
Second: Cc1ccc(C2=NS(=O)(=O)N(C)C(C(=O)N(C)C3CCCCC3)=C2)cc1
The “hERG current change (%, negative = inhibition) at 10uM” value of the first is higher: -1.83% for the first, -46.4% for the second.

Compared with Cc1cc(NC(=O)c2ccco2)ncc1NC(=O)CCc1ccccc1, COc1cc(NC(=O)c2ccccc2)ccc1NC(=O)Cc1ccccc1 is higher in “hERG current change (%, negative = inhibition) at 10uM” value: -20.7% for the first, 12.9% for the second.

Going from CCOc1ccc(OCCOC(=O)CN2C(=O)NC3(CCCC3)C2=O)cc1 to CCOc1ccc(CNC(=O)CCCc2cn(C)c3ccccc23)cc1, the “hERG current change (%, negative = inhibition) at 10uM” value rises from 5.93% to 11.7%.

Compared with Fc1cccc(Cl)c1Cn1nnc(-c2ccc3c(c2)OCO3)n1, O=S(=O)(NC1CCC(NS(=O)(=O)c2c(F)cccc2F)CC1)c1ccc2c(c1)OCCO2 (centres unmarked) is lower in “hERG current change (%, negative = inhibition) at 10uM” value: -1.37% for the first, -8.97% for the second.

Compared with CCOc1ccc(C2CC(c3ccc(F)cc3)Nc3nc(N)nn32)cc1 (centres unmarked), COc1ccc(C2=NOC(C(=O)Nc3cccc(O)c3)C2)cc1 (centres unmarked) is higher in “hERG current change (%, negative = inhibition) at 10uM” value: -16.3% for the first, -1.46% for the second.

Going from Cn1ncc(-c2ccno2)c1C(=O)O to CCn1c(SCC(=O)O)nc2ccccc21, the “hERG current change (%, negative = inhibition) at 10uM” value rises from 18.9% to 45.9%.

Going from COc1ccc(C(=O)N(CN2CCCC2=O)c2ccccc2OC)cc1OC to COc1ccccc1OCCNC(=O)c1ccc(C(C)(C)C)cc1, the “hERG current change (%, negative = inhibition) at 10uM” value rises from -20.6% to -13.9%.

Compared with Cc1nc(N/N=C/c2ccc(O)cc2)c2cnn(-c3ccccc3)c2n1, C/C(=N\Nc1nncc2ccccc12)c1cccc(OC(F)F)c1 is higher in “hERG current change (%, negative = inhibition) at 10uM” value: 13.9% for the first, 25.1% for the second.

Going from O=C(Nc1ccc(Cc2ccncc2)cc1)c1ccc(S(=O)(=O)N2CCOCC2)cc1 to O=C(Nc1ccc(NC(=O)c2ccc(Cl)c(S(=O)(=O)N3CCOCC3)c2)cc1)c1ccccc1, the “hERG current change (%, negative = inhibition) at 10uM” value rises from -41.1% to -2.67%.

Compared with OC1C=CSc2nc3ccccc3n21 (centres unmarked), O=C(Cc1ccccc1)Nc1nc(-c2cccs2)cs1 is lower in “hERG current change (%, negative = inhibition) at 10uM” value: 4.02% for the first, -4.22% for the second.

Compared with Cc1ccc(N(CC(=O)N/N=C/c2cc(C)n(-c3ccccc3C)c2C)S(C)(=O)=O)cc1, CCOc1ccc(NC(=O)CN(C)C(=O)c2c(C)nn(-c3ccccc3)c2Cl)cc1OCC is higher in “hERG current change (%, negative = inhibition) at 10uM” value: -18.4% for the first, -0.407% for the second.

Compared with CCC(=O)Nc1ccc(-c2nnc(SCC(=O)Nc3nccs3)n2C)cc1, CC(C)Cc1nc(SCC(=O)Nc2ccc(S(N)(=O)=O)cc2)n[nH]1 is lower in “hERG current change (%, negative = inhibition) at 10uM” value: 13.3% for the first, -7.32% for the second.

First: O=C(NNS(=O)(=O)c1ccc(F)cc1F)c1csc(-c2cccnc2)n1
Second: O=C(COC(=O)CCC(=O)c1ccc(F)cc1)Nc1ccc(F)cc1F
The “hERG current change (%, negative = inhibition) at 10uM” value of the first is higher: 15.8% for the first, 4.1% for the second.

Going from COc1ccc(OC)c(S(=O)(=O)Nc2cccc(-c3ccc4nncn4n3)c2)c1 to COc1ccc(OC)c(C(=O)CSc2nc3cccnc3n2C)c1, the “hERG current change (%, negative = inhibition) at 10uM” value falls from 18.7% to -0.684%.

Going from ClC1C(Cl)C(Cl)C(Cl)C(Cl)C1Cl (centres unmarked) to CCOC(=O)C1=NOC2C3CC(C12)C1C(=O)N(CCc2ccc(OC)c(OC)c2)C(=O)C31 (centres unmarked), the “hERG current change (%, negative = inhibition) at 10uM” value falls from 19.5% to 8.48%.

First: CCCc1nnc(NC(=O)CS(=O)(=O)c2ccc(C)cc2)s1
Second: CC(C)c1nnc(NC(=O)CCS(=O)(=O)c2ccccc2)s1
The “hERG current change (%, negative = inhibition) at 10uM” value of the first is lower: 6.3% for the first, 19.5% for the second.

Going from CC(C)CNc1nc(=S)nc(N(C)C)[nH]1 to CC(NC(=O)c1ccncc1)C(C)(C)C (centres unmarked), the “hERG current change (%, negative = inhibition) at 10uM” value falls from 16.4% to -7.78%.

Compared with CCOC(=O)c1cccc(NC(=O)CSc2nc(N)cc(N)n2)c1, CCc1cc(C(=O)Nc2ccc(C)cc2Br)cs1 is higher in “hERG current change (%, negative = inhibition) at 10uM” value: -3.02% for the first, 9.15% for the second.

Going from COc1ccc(/C=C/C(=O)NC(=S)Nc2ccc(Br)cn2)cc1 to COc1ccc2[nH]c(O)c(NC(C)=O)c2c1, the “hERG current change (%, negative = inhibition) at 10uM” value falls from 20% to 1.61%.

Going from Cc1ncc(CO)c(/C=N/Nc2cccc(Cl)n2)c1O.Cl to Cn1c(SCC(=O)NCC2CCCO2)nc2c([nH]c3ccccc32)c1=O (centres unmarked), the “hERG current change (%, negative = inhibition) at 10uM” value falls from 8.89% to -9.56%.

Compared with Cc1cc(C)c(S(=O)(=O)c2ccc(F)cc2C)c(=O)[nH]1, CS(=O)(=O)N1c2ccccc2[C@@]2(Br)C[C@H]3C(=O)N[C@@H](Cc4ccccc4)C(=O)N3[C@@H]12 is lower in “hERG current change (%, negative = inhibition) at 10uM” value: 23.6% for the first, 12.2% for the second.

Compared with O=c1ccc(Cc2ccc(Cl)cc2)n[nH]1, O=C(Nc1ccccc1)NC1(C(=O)NCc2ccc3c(c2)OCO3)CCCCC1 is higher in “hERG current change (%, negative = inhibition) at 10uM” value: 16.8% for the first, 30.9% for the second.

Going from Cc1oc2ccc(OC(=O)c3cccs3)cc2c1C(=O)OC(C)C to COC(=O)C1=C(C)NC2=C(C(=O)c3ccccc32)C1c1ccc(-c2ccc(C(=O)O)cc2)o1 (centres unmarked), the “hERG current change (%, negative = inhibition) at 10uM” value rises from 9.9% to 10.4%.

First: O=C(c1cccc(N2CCCC2=O)c1)N1CCOCC1
Second: O=C(C1CCCO1)N1CCN(C(=S)Nc2ccccc2)CC1 (centres unmarked)
The “hERG current change (%, negative = inhibition) at 10uM” value of the first is higher: 8.67% for the first, -16.3% for the second.

Going from CN(C(=O)CSc1nnc(-c2c[nH]c3ccccc23)o1)C1CCS(=O)(=O)C1 (centres unmarked) to COc1cccc(NC(=O)COC(=O)COc2ccccc2[N+](=O)[O-])c1, the “hERG current change (%, negative = inhibition) at 10uM” value rises from -21.3% to 6.11%.

With Cc1cccc(C(=O)NCCCN(C)CCCNC(=O)c2cccc(C)c2)c1 the “hERG current change (%, negative = inhibition) at 10uM” value was -52.2%.

Reference: PMC4336329 (PLoS ONE, 2015)
